Experimental data taken from the supplement of paper PMC3724861.
The other results are listed elsewhere or left out.

test system: T1, Caupolican (Caup) homeodomain DNA-binding domain; test: PBM E-score (8-mer, recovered from the published 9-mer minima) (E-score (dimensionless, -0.5 to 0.5)); Drosophila protein; higher = stronger relative binding preference, active = 0.31 or more
T1 sequence: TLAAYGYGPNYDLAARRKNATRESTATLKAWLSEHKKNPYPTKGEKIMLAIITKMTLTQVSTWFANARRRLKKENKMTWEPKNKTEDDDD
Summary of the method: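 Caup's homeodomain DNA-binding domain (residues 214-303) was made by in vitro transcription and translation and applied at 100 nM to custom-designed protein binding microarrays. Each value is an enrichment score that gives relative binding preference for a short DNA word, with higher meaning stronger. The 8-mer values were recovered from published 9-mer scores, each of which was the minimum of its two constituent 8-mer scores. A cutoff of 0.31 marks candidate sites.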

PBM E-score, ≥ -0.179:
CCGGGCCC

PBM E-score, inactive:
GAATCACA 0.063
CCCCCTTA -0.253
AGCTTGAC 0.0291
AGCGGAGG -0.189
CTTGGCTC -0.191
AACCTATC 0.0111
AAAGCTCT -0.225
ACGAAGGG -0.153
TACTTTCA 0.0535
CCGTCACA 0.00306
CAATCGTC 0.0634
CTTACATA 0.288
AGATACCG -0.0038
ACGTAGGC -0.111
ACCTTAGG -0.159
GGCGTTAC -0.0347
AGTCGTGG -0.0638
GAACAAAC 0.273
ATACACAC 0.256
TTACAGAA 0.151
GTATCACA 0.198
AACATCAC 0.267
GGAATCGA -0.117
CAAATTCC 0.12
CCATAGAA 0.0244
CACGGTTA 0.0894
AGTACCAA 0.128
AGCACGTC -0.0129
CAAAGGGA -0.00949
TGCGTTAA -0.042
ACTTACGG 0.00657
ATGAGGCC -0.19
GCTGTGGA -0.0809
AAATGGCC -0.154
ACAGACGG -0.0442
CTTGACTC -0.0832
GGTCTGAA -0.0713
TGATCTAA 0.0617
GTAGAAAA 0.0328
CGGATGTA 0.221
AGGAGGCA -0.256
TTGGTAAA 0.1
GAATCGCC -0.205
CCCGTGAA -0.0554
CAAGAATC 0.122
CGCAAAAA 0.0226
TGCTGACA 0.234
AACAACCG 0.235
ATCAACGA 0.021
TATAATCA 0.208
CAGGACAC 0.117
GACAATGA 0.0915
ATCATATC 0.0963
GAGTGCCA -0.119
GCAGCCGA -0.166
GCACGAAA 0.102
GCGCTGTA 0.0576
ATTCGTGA 0.114
ACATTGCG 0.125
AACACCCA 0.091
CGCTACTA 0.0331
GCCAAGTA -0.0558
TCTAGCCA -0.0519
CCCTTCGC -0.184
ACTCCGGG -0.0776
GGGGATAA 0.0174
AAAGCAAC 0.0317
AACAGTCG -0.00715
AAGCACAG 0.0525
AACATTAT 0.29
CAGATGTA 0.247
AAATGTAT 0.241
GGTCTTCA -0.145
CAAGCCGA -0.0158
ACCCCACT -0.183
CATATAAC 0.211
CGGGTTCA -0.0657
AGTCCACA -0.0273
AGCGCCTC -0.235
ACAGTATG 0.177
AACCGAGC -0.116
ATGGCCTC -0.152
AGTGCAAG 0.0613
AGCGAGTC -0.131
CACAATTC 0.0726
GAGCGCCC -0.279
CCTAGGGA -0.0969
CGGCCGAG -0.222
CCCCAAGC -0.111
TCAATAGA 0.0432
ACAACGCC 0.12
GAGAATGC 0.0148
GCGTGAAA -0.0114
ACTCCAAT -0.0022
GAGTGTGC -0.0841
ATGACTGC 0.00972
CTGAACTC -0.0888
TCCTCCAA -0.118
ATGACTTG 0.0173
GTGCGATA -0.0187
CTGGCAAA -0.0982
ATCTTCGA 0.0402
AATACCCG 0.00706
GCCCACGA -0.222
ACTAAATG 0.0694
GAGTAAAA 0.0592
AGATGTCC 0.234
AAAACCGG -0.0173
AGTGCCAC -0.0664
AAGCTGGG -0.0993
GCGTGCAA -0.00418
CAGGAAGC -0.008
AAGTGCCG -0.0869
CTCCATAA 0.00322
CTAAGACC -0.0468
AAAAAACC 0.0838
TGGGACCA -0.074
AGAGCCAA -0.0447
GCTGGACA 0.0811
AGTCTCCC -0.0964
AGCGGACG -0.236
CCGCGAGG -0.255
CTCTTCGA 0.0132
CCCTTCCC -0.179
GCCTCCTA -0.157
TCAATTCA 0.0705
GGGCGAGA -0.203
AGCTATAT 0.0597
CGCTGAAA -0.117
CATATGAG 0.0984
GTAGGGAC -0.0404
GAGGCGGC -0.269
ACTGGTGC 0.0345
TAGCCTAA -0.0114

PBM E-score, active:
TACATAAA 0.329
ACTATGTA 0.312

PBM E-score, ≥ 0.0053:
AGCCGATA

PBM E-score, ≥ -0.134:
ACGGCGGA

PBM E-score, ≥ 0.113:
ATAGAGAT

PBM E-score, ≥ 0.253:
AAATATAT

PBM E-score, ≥ -0.117:
AGGCTTCC

PBM E-score, ≥ 0.0199:
CACTTCCA
